# Out of some 310,000 compounds screened, about 14,000 (4.5%) showed an effect of 50% or more. Effects have a minus sign here. The list shows a part of the results.
# Target: human ether-à-go-go-related gene (hERG) potassium channel (human, UniProt Q12809)
# Experiment: primary screen, population patch clamp on CHO cells stably expressing hERG
# 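Note: peak tail current of the secondary pulse compared with the same well before compound.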
# Sequence of human ether-à-go-go-related gene (hERG) potassium channel (Q12809 whole entry, looked up): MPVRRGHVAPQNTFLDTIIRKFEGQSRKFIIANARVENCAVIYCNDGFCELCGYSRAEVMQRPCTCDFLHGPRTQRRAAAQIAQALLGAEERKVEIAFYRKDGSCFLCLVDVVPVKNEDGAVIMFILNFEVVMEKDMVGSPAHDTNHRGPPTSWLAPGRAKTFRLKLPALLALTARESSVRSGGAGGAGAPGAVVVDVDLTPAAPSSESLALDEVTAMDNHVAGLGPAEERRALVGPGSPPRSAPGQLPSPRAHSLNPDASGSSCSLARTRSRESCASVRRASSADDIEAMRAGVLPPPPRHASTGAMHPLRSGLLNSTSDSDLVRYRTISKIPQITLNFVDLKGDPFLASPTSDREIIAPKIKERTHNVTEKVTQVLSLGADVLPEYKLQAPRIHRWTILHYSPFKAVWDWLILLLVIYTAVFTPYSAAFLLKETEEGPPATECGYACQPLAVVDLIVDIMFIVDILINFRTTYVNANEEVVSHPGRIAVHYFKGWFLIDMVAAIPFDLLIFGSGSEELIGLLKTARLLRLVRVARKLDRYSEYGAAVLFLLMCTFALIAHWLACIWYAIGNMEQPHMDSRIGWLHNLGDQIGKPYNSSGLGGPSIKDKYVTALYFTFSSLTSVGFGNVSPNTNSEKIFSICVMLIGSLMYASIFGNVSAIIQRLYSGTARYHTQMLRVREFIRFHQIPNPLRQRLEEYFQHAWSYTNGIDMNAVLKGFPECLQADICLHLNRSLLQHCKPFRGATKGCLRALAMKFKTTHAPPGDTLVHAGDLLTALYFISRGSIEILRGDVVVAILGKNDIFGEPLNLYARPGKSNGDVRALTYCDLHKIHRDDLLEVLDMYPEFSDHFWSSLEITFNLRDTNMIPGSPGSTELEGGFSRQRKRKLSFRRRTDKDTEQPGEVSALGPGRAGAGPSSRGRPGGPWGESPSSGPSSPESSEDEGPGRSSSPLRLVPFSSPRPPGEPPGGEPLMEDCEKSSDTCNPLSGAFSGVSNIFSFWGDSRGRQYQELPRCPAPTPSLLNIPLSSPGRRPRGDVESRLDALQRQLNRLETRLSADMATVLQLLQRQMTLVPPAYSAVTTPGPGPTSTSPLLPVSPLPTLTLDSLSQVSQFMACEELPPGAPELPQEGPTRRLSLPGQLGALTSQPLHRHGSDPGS
row,Compound,"hERG current change (%, negative = inhibition) at 10uM [%]"
1,O=C(NCCCc1ccccc1)c1ccc(CS(=O)Cc2ccc(Cl)cc2)o1 (centres unmarked),-74.3
2,Cc1cccc(CCNC(=O)CN(C)S(=O)(=O)c2ccc3c(c2)c(=O)n(C)c(=O)n3C)c1,3.86
3,CCN(CC)C(=O)CSc1nnc(COc2ccccc2)n1N,5.65
4,Cc1c(N(C)C(=O)c2ccccc2F)c(=O)n(-c2ccccc2)n1C,6.39
5,CCn1c(SCC(=O)NCCc2ccccc2)nnc1C(C)C,13.8
6,Cc1ccc(Sc2c([N+](=O)[O-])c(C)nn2C)cc1,11.3
7,CN(C)S(=O)(=O)c1ccc(C(=O)OCn2nnc3ccccc3c2=O)cc1,-37.6
8,C=CCn1c(SCC(=O)N(C)C)nc2cc(C(=O)O)ccc2c1=O,46.4
9,COc1cccc(CCc2nnc(CCC(=O)NCCc3cccc(C)n3)o2)c1,24.7
10,Cc1c(NC(=O)C(C)OC(=O)c2cccs2)c(=O)n(-c2ccccc2)n1C (centres unmarked),3.46
11,O=C(Nc1ccc(S(=O)(=O)N2CCCCC2)cc1)C1CC1,0.836
12,O=C(CNC(=O)c1cccc(F)c1)OCC(=O)N1CCCCC1,4.9
13,COC(=O)Nc1nc(C)c(C(=O)N(C)C)s1,6.65
14,COc1cccc(-c2cc(C(F)(F)F)n3ncc(C(=O)N4CCc5ccccc5C4)c3n2)c1,-21.7
15,O=C1CSC(=S)N1c1cccnc1,-7.65
16,CC(NC(=O)c1ccc(Br)o1)C1CCCO1 (centres unmarked),13.6
17,COc1ccc(-c2nc(SC)n(S(=O)(=O)c3ccccc3)n2)cc1,-1.42
18,CCCCCCc1ccc(OCC(=O)O)cc1OCC(=O)O,2.33
19,Cc1ccc2nc(SCC(=O)Nc3ccc(C(N)=O)cc3)[nH]c2c1,3.74
20,COc1ccc2oc(C(=O)OCC(=O)N3CCN(c4ccccc4)CC3)c(C)c2c1,7.88

row,Compound,"hERG current change (%, negative = inhibition) at 10uM [%]"
1,Oc1c(C=NCc2ccc(F)cc2)[nH]c2ccc(Br)c(Cl)c12,-6.34
2,COc1ccc(CC(=O)Nc2cc(C)ccn2)cc1OC,16.2
3,Cc1cccc(C(=O)NCc2nnc(SCC(=O)NC3=NCCS3)n2C)c1,22.8
4,CC(Sc1nccn1C)C(=O)c1ccc(Br)cc1 (centres unmarked),14
5,CCCCN1C(=S)NC[C@@H]1Cc1ccc(O)cc1,7.98
6,S=c1nccc(-c2ccc(Cl)cc2)[nH]1,15.4
7,Br.Clc1ccccc1CNCC1CCCO1 (centres unmarked),0.516
8,COC(=O)N/N=C(\C)c1cccs1,17
9,C/C(Cl)=C/CSc1nn2c(=O)c3ccccc3nc2s1,-38.4
10,Cc1cc(C(=O)COC(=O)c2cccn2C)c(C)n1Cc1ccco1,21.4
11,CC(=O)c1c(C)[nH]c(C(=O)OCC(=O)NCCC2=CCCCC2)c1C,-1.07
12,CCc1nnc(NC(=O)CSc2nc(-c3ccccc3)cc(-c3ccc(OC)cc3)c2C#N)s1,16.8
13,CCC(OC(=O)CCc1nc2ccccc2[nH]c1=O)C(=O)c1ccccc1 (centres unmarked),7.92
14,COCCNC(=O)c1cc(S(=O)(=O)N(C)c2ccccc2OC)ccc1C,1.29
15,CC(=O)c1ccc(NC(=O)C2CC(=O)Nc3nc4ccccc4n32)cc1 (centres unmarked),14.9
16,O=S(=O)(Nc1ccccn1)c1ccc(Cl)c2ccccc12,19.5
17,COC(=O)c1ccccc1NC(=S)N1CCN(c2ccc(OC)cc2)CC1,5.71
18,O=S(=O)(Nc1ccccc1)c1cccc2nonc12,15.1
19,O=C(c1ccc(OC2CCN(CCc3ccccc3)CC2)cc1)N1CCC(CO)CC1,-0.17
20,COc1ccc(/C=N/NC(=O)Cn2nc(C)c([N+](=O)[O-])c2C)cc1,-11.9

row,Compound,"hERG current change (%, negative = inhibition) at 10uM [%]"
1,CC(C)(C)n1nnnc1C(c1cccnc1)N1CCN(c2ccccn2)CC1 (centres unmarked),21.1
2,CC(=O)Nc1cccc(/C(C)=N/NC(=S)NC(C)C)c1,-11.3
3,CC1=CC(C)(C)N2C(=O)C3(NCCc4c3[nH]c3ccccc43)c3cccc1c32 (centres unmarked),28.2
4,CCc1ccc(N2C(=O)NC(=O)/C(=C/c3ccsc3)C2=O)cc1,5.92
5,N#CCC(=O)Nc1ccc(C(=O)OCC(=O)c2ccc3c(c2)OCCO3)cc1,10.5
6,CN1CCC(N(C)C(=O)COc2ccccc2-c2ccccc2)CC1.Cl,-25.5
7,COc1ccnc(Oc2ccc(F)cc2)c1C(=O)N/C=N/OCc1c(Cl)cccc1Cl,-5.9
8,COc1ccccc1-c1cc(-c2ccc(O)cc2)nc(N)c1C#N,13.9
9,CCCCNC(=O)C1CC(=O)N(C2CCCCC2)C1 (centres unmarked),7.23
10,Cc1cc(/C=C2/C(=O)NN(c3ccccc3)C2=O)c(C)n1-c1ccc(O)cc1,10.5
11,Cc1ccc(-n2c(N)c(-c3nc4ccccc4n3C)sc2=S)cc1,9.83
12,COc1ccc(CNC(=O)OCc2nccnc2C(=O)Nc2ccc(Br)cn2)cc1,-19
13,Cn1c(CCCOc2ccc(Cl)cc2Cl)n[nH]c1=S,-8.86
14,CCN(Cc1cn2cccnc2n1)C1CCCCC1,16.5
15,O=c1cc(C(O)C[N+](=O)[O-])occ1OCc1ccccc1 (centres unmarked),-2.17
16,Cc1ccnc(NC(=O)c2ccc([N+](=O)[O-])o2)c1,-2.85
17,COc1ccc(O)c(/C=N/NC(=O)c2ccc(CSc3nc(C)cc(C)n3)cc2)c1,6.93
18,Cc1ccc(NCc2n[nH]c(=S)n2-c2cccc(Cl)c2)cc1,18.6
19,CN1C2C=C3C(C#N)=C(N)C(C#N)(C#N)[C@@H](c4cccc(F)c4)[C@@H]3C1CC2 (some centres unmarked),7.97
